# ± gives the standard deviation of the averaged measurements. The list shows a part of the results.
# Tested on: PfAP2-G AP2 domain (GST-tagged)
# Test: gcPBM binding intensity (ln(normalized median fluorescence intensity)); higher = stronger DNA binding
# Outline: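 GST-fused DNA-binding domains of P. falciparum, expressed in E. coli, were applied at about 25 μg on average for 1 h to an Agilent 4 × 180k array of primer-extended double-stranded 36-bp intergenic genomic probes and negative controls. Binding intensity is the highest Masliner-normalised natural-log median intensity across replicate spots of either probe orientation, measured with Alexa488 anti-GST antibody and a 488 nm scan.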
row,Sequence,gcPBM binding intensity (ln)
1,ATATTTAAATGGATCACACATATATATATATATATA [CACACA_site5255],10.2 ± 0.57
2,TTAAAAAATAACAAGGTGCAAATAGGTTTATAAAAT,10.2 ± 0.11
3,ACTTACACATTTATTACACACATAAAGGAAAATTTT [CACACA_site1356],10.3 ± 0.27
4,CACTAATAGTGGATTACACACATATATATGTATATA [CACACA_site2531],10.23 ± 0.014
5,CGCGAAGTAGCATTCACACACAGCAAAATATATATA [CACACA_site3495],9.995 ± 0.035
6,TTTTTATTTTTATACATATAATATATTATGATTAAA [CACACA_negctrl_site214],9.94 ± 0.24
7,ACAGCATAATCATGCTGTACATTATTTTCTTAAGTA [XGTACX_site8456],10.9 ± 0.6
8,AGAGACTTAGAAAACACACATACATAAGATAATTTA [CACACA_site2377],10.1 ± 0.24
9,TTTTTAACATTTAAATGTACATGTTACAATTTAAAG [XGTACX_site8789],11.1 ± 0.73
10,TACTAAAACCCATACACACACATATATATAGTACCA [CACACA_site3184],10.7 ± 0.5
11,TAAAATAAAAGTGAAACACACAGTATTTTACAACAT [CACACA_site3811],9.74 ± 0.071
12,AAAATAGCTGTATAGAGTACATATAAATAATGTTGT [XGTACX_site5692],11.2 ± 0.72
13,TGCAAAAAATTCCACACACACACACGCATATAAATA [CACACA_site6696],10.2 ± 0.3
14,ATAACAATTATTTGTCGACACACGTATATGTTATTT [CACACA_site1766],10.17 ± 0.099
15,CAAGCTTTTTCCTTTACACACATTAATTATATATAT [CACACA_site1423],10.04 ± 0.021
16,TTTTGAAGAAAATTCTTTTTTTTTTTTTTTTGTAAA [CACACA_negctrl_site102],9.45 ± 0.16
17,ATATAATGACAAGTATAAGTATCACAAAGAAATAAA [CACACA_negctrl_site1403],10.3 ± 0.14
18,CCACTTTTTGAAGACACACACAAAAAAAAAAAAAAA [CACACA_site2551],10.3 ± 0.64
19,TCATATAATATTTATATGCACACTTTTCTATATATA [CACACA_site4075],9.885 ± 0.049
20,TTTCGTCATTTTGTTTTTAATTCTACAATTTAGTTA [XGTACX_negctrl_site286],10.03 ± 0.042
21,CATTTTTCTATATGTGCATGTAAGATAAGAATAATT [TGCATGCA_site107],10.4 ± 0.32
22,TACTTATTATGAAACACACACCAAAACTACAGAATA [CACACA_site6265],10.4 ± 0.37
23,AAAAAAAAAGGTACTACACACTATTATCAATAGAAA [CACACA_site91],11.2 ± 0.87

row,Sequence,gcPBM binding intensity (ln)
1,CAAAATAAAAAATTCACACACATATAAATATAAATA [CACACA_site7065],9.74 ± 0.16
2,TTATATATTTATAAATGTACATATAATTTTTTTATA [XGTACX_site4696],11.1 ± 0.67
3,CTGATATATAGATGTAGTACATAAAAATGACGAATT [XGTACX_site5612],11.5 ± 0.77
4,ATATTTTTATTTAAATCACATCATTTTGTTTATTTG [CACACA_negctrl_site1056],9.71 ± 0.26
5,CATATAATTATTGAAAGTACATACAAATAAAAAGAT [XGTACX_site6535],11.3 ± 0.76
6,ATTTAATTTATTATGTGTACTTATTTAATTAAATTA [XGTACX_site3171],11.6 ± 1.2
7,TTTTGTGAATTTTAGATTTTTTAATACAAGAATATT [CACACA_negctrl_site606],9.685 ± 0.021
8,ATATTTACCACTGTATGTACATATATAAAATATATC [XGTACX_site6373],11.2 ± 0.71
9,ATATATATATGTATATGTACATATATATACACATAT [XGTACX_site140],11.1 ± 0.71
10,TAAATATATTTATATTGTACATTTATGTTGATACCA [XGTACX_site228],10.8 ± 0.51
11,TGAGCACAAATACAGGTGCATATAAAATATATGACG,10.02 ± 0.049
12,AGAGGCCAGCTTTCTCTTCTAAACATGTACAAAAAT [GTGCAC_negctrl_site98],11.2 ± 0.48
13,AAAAAAATAAAATGTTCACACATTTCACAATTACTT [CACACA_site4859],9.835 ± 0.049
14,TTTACAGATACTTGCTCACACATATGTATAAAAATA [CACACA_site4928],10.3 ± 0.3
15,TATAATATATATAGGAGTACGTATGTATATTTATAA [XGTACX_site3521],11.3 ± 0.81
16,ATATATATATAGTGCACACATATAAAATATATATAA [CACACA_site2745],10.4 ± 0.52
17,AAGTAAAAAAATAGCACACACACAAAAACACCCACA [CACACA_site1291],10.9 ± 0.71
18,AATAGTTAAATGTACACACTAACTACATGGAATATA [CACACA_site3262],11.4 ± 0.98
19,TATATATAAAACATATGTACATATATATATATATAT [XGTACX_site419],11.4 ± 1
20,ATATTTTATAATTTTACACACCATATAAAATAATTC [CACACA_site2797],10.05 ± 0.049
21,ACATGAAACTATAAACGTACATACATACATATATAT [XGTACX_site5011],11.3 ± 0.67
22,AGGCTCATTTTTTTTAGTACATCAAAAAAAAAAAAA [TGCATGCA_negctrl_site591],11.1 ± 0.89
23,CTATTTTTTGTATAAACATGCATATAGTAGATATGG [TGCATGCA_site670],10.1 ± 0.23

row,Sequence,gcPBM binding intensity (ln)
1,TTTAATATTTTTTTTTGTACTTATTTGTAGAAATAT [XGTACX_site3046],11.2 ± 0.83
2,TGTATGTTTATTTGATGTACGGTCATACATATAAAT [XGTACX_site5176],10.8 ± 0.5
3,AAATTCATATGAATTTGTACGGACATAAATATCTTC [XGTACX_site1838],11.2 ± 0.71
4,ATTCATAATATTATAACACACGCTTATTACATAAAG [CACACA_site980],10.03 ± 0.064
5,TAATATTGTATTTATGTACACACATTTTTGGAATAT [CACACA_site8371],11.4 ± 0.83
6,AGTGTATTAATTCTCACACACTAAGAAAAAAAAAAA [CACACA_site6007],10.1 ± 0.3
7,TTTTTTAATAAATGGTGTACATATTTTTTTTATACT [XGTACX_site8584],11.8 ± 0.87
8,CGCATGTATTTTGTGTGTACTAATTATAATCAACTT [XGTACX_site4709],11.4 ± 0.83
9,TTTTACATATACATGTGTACATAACAAAGAATGTTT [XGTACX_site2406],11.3 ± 0.84
10,TTTTTTTTATTAAAAAGTACTAAACAAATTATATAT [XGTACX_site121],11.1 ± 0.73
11,TAACACATATATTGTTGTACATTCAAACTGAAAAAT [XGTACX_site5565],11 ± 0.57
12,TATATACATATGTGATGTACATTTTTTGTAATATAA [XGTACX_site6985],11.1 ± 0.5
13,ATATATATATATATGTGTACATATGTATATATATCT [XGTACX_site2930],11.3 ± 0.75
14,AGATGGAGAAAGTTATGTACACATATATAAATATGT [XGTACX_site6150],11.5 ± 0.79
15,CCCATGTAATGAACATGTACATAATAATTTATAAAT [XGTACX_site8687],11.2 ± 0.81
16,AAACATCATAAATATACACACATATTTATATTTATA [CACACA_site6437],9.895 ± 0.064
17,ATGTCTACAGTTTTTGCACACATATAAATAAAAAAA [CACACA_site3600],10.5 ± 0.52
18,ATTTTTTTTTTTTTTTTTTTTGAGAAGAACTTTTTC [CACACA_negctrl_site1019],9.79 ± 0.11
19,TTTTAAAAAGAAAAAAATAACATACATATATATATA [CACACA_negctrl_site240],9.71 ± 0.36
20,CCATAACTCATATGCACACATAAATATTACATATAT [CACACA_site3821],10.2 ± 0.18
21,ACTCATAAAAATAGATGTACTTTAATAATTTGATTT [XGTACX_site8763],11.3 ± 0.84
22,TCAAACGGTTAAATATGTACATATATATATATATAT [XGTACX_site2339],11.1 ± 0.65
23,AAAAAAAAAAGACACACACACATATAAATATAAATA [CACACA_site6899],10 ± 0.2

row,Sequence,gcPBM binding intensity (ln)
1,TAAGAGATATTTTATTAAATGTTTTATGAATCATGT [TGCATGCA_negctrl_site264],9.46 ± 0.22
2,AGGAAAAAAAAAATGACACACATATTTGAATTAAAA [CACACA_site1352],9.965 ± 0.007
3,ACCCACTTTTGAGGTGTGCACAATAAATTGGACATT,10.9 ± 0.61
4,ATATATATTTAAACTACACACGCATATCTTAGAAAT [CACACA_site8348],10.145 ± 0.007
5,GTACATACATAAAACACACACATATAGATTTATATA [CACACA_site6945],10.7 ± 0.24
6,AGTGTGTGTAATAAAGTGCATTAAAAATGACACGTA,10.4 ± 0.42
7,ATATTAAAATGAAAATATAAAAAAAAAAAAAAAAAA [CACACA_negctrl_site1559],9.54 ± 0.65
8,CAATCAAATAGACACACACACACCTAAACATAAAAG [CACACA_site7322],10.2 ± 0.25
9,AGCCATTAATTCTCTACACACCTTTATGTTATTTAG [CACACA_site3635],10.1 ± 0.2
10,TATTAATAAAAGCATTGTACAGTAATAAATAAATAA [XGTACX_site2924],10.8 ± 0.48
11,TATATATATAAACACACACACACCAAAGCGTAGCGC [CACACA_site7903],10.1 ± 0.14
12,TTGTATTCATAACAACGTACATATTTTGTAACTAAA [XGTACX_site4029],11.1 ± 0.69
13,TTTCAAACAAAAAGACGTACACTGAAGTTATCCGTC [XGTACX_site8824],11.8 ± 1
14,AAGGAAATATAATATACACACATAAGTGTACTTCTA [CACACA_site6079],11.7 ± 1.1
15,TGTTTATTTTTAAAAAGTACATATTTAAAAAACTTC [XGTACX_site271],11.4 ± 1
16,TTTTCTAAATAAATAGTGCATTTATTATATATACAT [GTGCAC_site9766],9.97 ± 0.13
17,CAAAACCTTATATGTACACACATATACATCACCCTT [CACACA_site3170],11.5 ± 0.92
18,ATAGAATAAAACTATACACACCTATATTTAAACATA [CACACA_site5106],9.9 ± 0.014
19,ATTTCTCTATCGTAATGTACATAAAAAATGAAAAAA [XGTACX_site1201],11.3 ± 0.71
20,CAAAAGAAGGTAAACACACACACACGCATACAAAAA [CACACA_site7724],10.2 ± 0.14
